Results published in the supplement of paper PMC12217912.
This is one part of the list. Sequences were assembled here from the parent chain. Inactive controls read about 0.05.

B1: TEV protease; numbered along this chain (parent)
chain: MGESLFKGPRDYNPISSSICHLTNESDGHTTSLYGIGFGPFIITNKHLFRRNNGTLVVQSLHGVFKVKDTTTLQQHLVDGRDMIIIRMPKDFPPFPQKLKFREPQREERICLVTTNFQTKSMSSMVSDTSCTFPSGDGIFWKHWIQTKDGQCGSPLVSTRDGFIVGIHSASNFTNTNNYFTSVPKNFMELLTNQEAQQWVSGWRLNADSVLWGGHKVFMVKPEEPFQPVKEATQL

Variants of: B1
Experiment: raw area under fraction-flipped curve 0-4 h after induction (AUC4h, not background-subtracted), DNA-recorder readout of cleavage of the substrate (dimensionless); higher = more cleavage of the substrate by the protease variant
Details: temperature: 34 °C; time window: 0-4 h after rhamnose induction
Description: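 In vivo DNA recorder in E. coli TOP10(DE3) ΔrhaA at 34 °C. Each TEVp single-site mutant (parent TEVp 0) is paired with a single-site variant of the 7-mer TEVs (canonical ENLYFQ|S). The substrate sits between flexible linkers in a Bxb1-sfGFP-TEVs-SsrA fusion, so cleavage stabilises Bxb1 and speeds flipping of a recombination array, read by NGS. The value is the raw area under the fraction-flipped curve over 0-4 h after rhamnose induction (AUC4h), with ≥20 reads per time point. It is not background-subtracted; inactive controls average about 0.047.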
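Note: Bxb1 expression induced with 0.2% (w/v) L-rhamnose at OD600 near 0.5, cultures sampled hourly, flipped fraction per protease–substrate barcode pair counted by paired-end Illumina sequencing.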

Variant | area with substrate ENLYFAS | area with substrate ENLYFES | area with substrate ENLYFFS | area with substrate ENLYFGS | area with substrate ENLYFHS | area with substrate ENLYFIS | area with substrate ENLYFKS | area with substrate ENLYFMS | area with substrate ENLYFNS | area with substrate ENLYFPS | area with substrate ENLYFRS | area with substrate ENLYFVS | area with substrate ENLYFYS | area with substrate ENLYFDS | area with substrate ENLYFTS | area with substrate ENLYFWS | area with substrate ENLYFCS | area with substrate ENLYFLS | area with substrate ENLYFSS
E3C | 0.0637 | 0.0573 | 0.0748 | 0.0398 | 0.0678 | 0.0607 | 0.0725 | 0.058 | 0.0891 | 0.0451 | 0.058 | 0.0548 | 0.0444 | – | – | – | – | – | –
E3F | 0.06 | – | 0.0516 | – | – | – | 0.0534 | 0.0707 | 0.0591 | 0.0652 | – | – | – | 0.0991 | 0.0442 | 0.0531 | – | – | –
E3R | 0.0622 | – | 0.0358 | – | 0.0575 | 0.05 | 0.0594 | 0.0627 | 0.0677 | 0.0574 | – | – | 0.0506 | 0.0735 | – | – | 0.0631 | 0.0712 | 0.0533
L5P | 0.0601 | – | – | – | – | 0.0693 | – | 0.0712 | – | – | – | – | – | 0.0451 | – | – | – | – | 0.0642
P9R | 0.0651 | 0.0627 | – | 0.043 | – | 0.0517 | 0.0479 | 0.0809 | 0.0643 | 0.0377 | – | – | – | – | 0.0498 | – | 0.0497 | – | –
R10D | 0.0663 | 0.0647 | 0.0812 | – | 0.0532 | 0.0532 | 0.0675 | – | 0.0471 | 0.0599 | 0.0486 | 0.0616 | 0.0518 | 0.0633 | 0.0553 | – | 0.0609 | 0.0323 | 0.0572
R10W | 0.0495 | – | 0.0503 | 0.0738 | 0.043 | 0.0526 | 0.0606 | 0.0684 | 0.0757 | 0.057 | 0.0696 | 0.0689 | 0.0484 | – | 0.0588 | – | 0.0853 | 0.0576 | 0.0555
D11F | 0.0482 | 0.0585 | 0.0796 | – | – | 0.0586 | 0.0591 | 0.0804 | 0.0628 | 0.0645 | 0.0621 | 0.0518 | 0.0466 | – | 0.0785 | 0.0695 | 0.0475 | 0.0833 | 0.0514
D11P | 0.06 | 0.0608 | 0.0686 | 0.0558 | 0.0512 | 0.0572 | 0.0675 | 0.0587 | 0.0646 | 0.0419 | – | – | 0.0668 | 0.0712 | 0.0581 | 0.0589 | – | 0.0527 | 0.0548
Y12C | 0.0571 | 0.0591 | 0.0643 | – | – | 0.0668 | 0.0629 | 0.0648 | 0.0718 | 0.0597 | 0.065 | 0.0582 | 0.0558 | – | 0.0645 | 0.0485 | 0.0653 | 0.067 | 0.058
Y12M | 0.0989 | 0.0601 | 0.0754 | 0.061 | 0.0705 | 0.0545 | 0.0663 | 0.0578 | – | 0.0623 | – | 0.0679 | 0.0506 | – | 0.0535 | 0.0474 | 0.0671 | 0.056 | 0.0479
N13H | 0.0522 | 0.0571 | 0.0711 | – | 0.0565 | 0.0629 | – | 0.065 | 0.0507 | 0.0565 | 0.0627 | – | 0.0559 | 0.0718 | 0.0342 | 0.0566 | 0.0535 | 0.0524 | –
N13M | 0.0514 | 0.0512 | 0.0645 | – | 0.0679 | 0.069 | 0.0579 | 0.0788 | – | 0.0541 | 0.0686 | 0.0564 | 0.0632 | – | 0.0593 | – | 0.0637 | – | 0.046
P14E | 0.0668 | – | 0.0995 | – | – | 0.0584 | 0.0582 | 0.0602 | 0.0654 | 0.0587 | 0.0643 | – | 0.0596 | – | 0.0594 | 0.0599 | – | 0.0626 | 0.0437
P14H | 0.0672 | – | 0.0679 | – | 0.0478 | 0.0593 | 0.0654 | 0.076 | 0.068 | 0.0648 | 0.0549 | – | – | 0.0536 | – | 0.0576 | 0.0675 | 0.053 | –
P14K | 0.0636 | 0.0566 | 0.0791 | 0.06 | 0.0718 | 0.053 | 0.0699 | 0.0709 | 0.0556 | 0.0666 | 0.068 | – | 0.0569 | – | 0.0597 | 0.0558 | 0.0793 | – | 0.0604
I15P | 0.0495 | 0.0618 | 0.0505 | 0.0595 | 0.0677 | 0.054 | – | 0.0615 | 0.0522 | 0.0493 | 0.0577 | 0.0581 | 0.0493 | – | – | – | 0.05 | 0.0549 | –
S17P | 0.0434 | 0.0591 | 0.0288 | – | 0.0705 | 0.0553 | 0.0441 | 0.0582 | – | 0.0667 | 0.0714 | – | – | 0.0527 | – | – | 0.062 | – | –
S18Q | 0.0613 | 0.0756 | 0.0577 | 0.0462 | 0.0507 | 0.0586 | – | 0.0654 | 0.07 | – | 0.0605 | – | – | 0.0585 | – | 0.051 | 0.0879 | 0.0493 | –
C20L | 0.0623 | 0.0777 | 0.0676 | – | 0.0483 | 0.0511 | 0.0557 | 0.0577 | 0.0634 | – | 0.0471 | – | – | 0.0625 | 0.0529 | 0.0502 | 0.0564 | 0.0629 | 0.0637
C20W | 0.0404 | 0.0442 | 0.0446 | 0.046 | 0.0503 | 0.0429 | 0.0578 | 0.0356 | 0.0422 | 0.0452 | 0.0366 | 0.0419 | 0.0243 | 0.0584 | 0.0347 | 0.0449 | 0.0367 | 0.0403 | 0.0345
H21V | 0.0636 | 0.0558 | 0.0772 | – | – | 0.0571 | – | 0.0567 | 0.0616 | 0.0565 | 0.0528 | 0.0573 | 0.0496 | – | 0.0643 | 0.0649 | – | 0.0462 | 0.0816
L22C | 0.0506 | 0.0638 | 0.0682 | 0.0657 | 0.0513 | 0.0589 | – | 0.0715 | 0.087 | 0.0502 | – | 0.071 | 0.0455 | 0.0769 | 0.0425 | 0.0503 | 0.0587 | 0.0506 | 0.0573
L22D | 0.0495 | 0.0718 | 0.0483 | – | 0.0451 | 0.0419 | 0.0462 | 0.0412 | 0.0501 | 0.045 | 0.0413 | 0.0351 | 0.0448 | – | 0.0405 | – | 0.0435 | 0.0365 | 0.0468
T23A | 0.0627 | 0.0586 | 0.0712 | – | 0.0561 | 0.0557 | 0.0626 | 0.0668 | 0.0636 | 0.0613 | 0.0666 | – | – | – | – | 0.058 | – | 0.071 | 0.0344
